# Measurements: PubChem BioAssay (Tox21)
# Results filed as inconclusive are left out. Unless noted, calls follow the shape of the full dose curve. A structure can be active in one record and inactive in another. The source holds more than one record for some entries. They are shown here; other results are not. There may be further records. Values that stand side by side are repeats across runs, samples, wells, individuals or studies. Records carry a tag for their origin. Letters hold for one entry only.
# Assays:
# [1] = molecular target: Gonadotropin-releasing hormone receptor (Homo sapiens) (UniProt P30968); assay: Human gonadotropin-releasing hormone receptor (GnRHR) small molecule agonists, calcium flux assay in GnRHR-HEK293 cells (AID 1920063); also: nearly all actives have a fitted effect of over 35% in size
# Source text: National Center for Advancing Translational Sciences [NCATS]
# Division of Preclinical Innovation [DPI]
# U.S. Environmental Protection Agency [EPA]
# National Institutes of Environmental Health Sciences [NIEHS]
# National Toxicology Program [NTP]
# U.S. Food and Drug Administration [FDA]
# Gonadotropin-releasing hormone receptor (GnRHR) is a G-protein-coupled receptor (GPCR) and acts (through phospholipase C) to increase intracellular inositol trisphosphate and then release intracellular calcium stores. Cell-based GnRHR-Hek293 calcium influx assay is using HEK293 cells that have been genetically engineered to express the human GnRHR, which activity can be measured by calcium signaling. A compound/drug can activate (agonist) GnRHR that can be monitored by levels of intracellular calcium.
# GnRHR-HEK293 cells developed by Codex Corp contain human GnRHR reporter gene, which was stably integrated into HEK 293 cells. The compound activation can be detected by fluorescence intensity via calcium flux assay. This cell line has been used to screen the Tox21 10K compound library to identify GnRHR agonists.
# GnRHR-Hek293 cells were dispensed at 1500cells/4uL/well in 1536-well black wall/clear bottom plates using a multidrop dispenser. After the assay plates were incubated at a 37 C/5% CO2 incubator for 18 hours, 4 uL of Calcium Dye Solution was added to each well. The plates were incubated at 37 C for 1 hour. For agonist mode, 23 nL of compounds dissolved in DMSO, positive controls or DMSO only was transferred to the assay plate by a pin tool station. The fluorescence intensity in the plates was measured using FDSS 7000EX kinetic plate reader with a filter set of Ex/Em=480/540 for 3 min at 1 sec intervals. Each test compound was measured at 15 concentrations and in triplicates.
# [2] = molecular target: KiSS-1 receptor (Homo sapiens) (UniProt Q969F8); assay: Human kisspeptin (KISS1R) small molecule agonists, calcium flux assay in KISS1R-HEK293 cells (AID 1920064; active = well fitted activation curve with a large enough effect in the repeat runs)
# Outline: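 Triplicate 15-concentration series were applied to dye-loaded human KISS1R HEK293 cells, and agonist-evoked calcium fluorescence was captured for 3 min.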
# [3] = p53 small molecule agonists, cell-based qHTS assay with rat liver microsomes (AID 1963578)
# Source text: U.S. Tox21 Program National Center for Advancing Translational Sciences [NCATS] Division of Preclinical Innovation [DPI] U.S. Environmental Protection Agency [EPA] National Institutes of Environmental Health Sciences [NIEHS] National Toxicology Program [NTP] U.S. Food and Drug Administration [FDA] Tox21 Assay Overview: p53, a tumor suppressor protein, is activated following cellular insult, including DNA damage and other cellular stresses. The activation of p53 regulates cell fate by inducing DNA repair, cell cycle arrest, apoptosis, or cellular senescence. The activation of p53, therefore, is a good indicator of DNA damage and other cellular stresses. […] The activation of the reporter gene under culture conditions can be detected by fluorescence intensity. This cell line was used to screen the Tox21 10K compound library in the condition of presence of rat liver microsomes and to identify agonists that activate the p53 signaling pathway after in vitro metabolic activation (Ooka et al., Archive of Toxicology 96:1975-1987, 2022).
# Tox21 Assay Protocol Summary: The p53RE-bla cells were dispensed at 4,000cells/3ul/well in 1536-well black-clear bottom plates. After the assay plates were incubated at 37 C, 5% CO2 incubator for 5 hours, 23 nL of compounds dissolved in DMSO, positive controls or DMSO only was transferred to the assay plate. […]
# [4] = cAMP Responsive Elements (CRE) small molecule agonists, cell-based qHTS assay (AID 1963590)
# Outline: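 Quantitative HTS for CRE agonists: HEK 293T CRE-bla cells, overnight plating, 3 h compound incubation at 37 C/5% CO2, then 2 h room-temperature LiveBLAzer B/G FRET substrate loading.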
# Potency is read from the fitted curve at half-maximal effect.
# Sequence of UniProt P30968 (P30968 whole entry, looked up): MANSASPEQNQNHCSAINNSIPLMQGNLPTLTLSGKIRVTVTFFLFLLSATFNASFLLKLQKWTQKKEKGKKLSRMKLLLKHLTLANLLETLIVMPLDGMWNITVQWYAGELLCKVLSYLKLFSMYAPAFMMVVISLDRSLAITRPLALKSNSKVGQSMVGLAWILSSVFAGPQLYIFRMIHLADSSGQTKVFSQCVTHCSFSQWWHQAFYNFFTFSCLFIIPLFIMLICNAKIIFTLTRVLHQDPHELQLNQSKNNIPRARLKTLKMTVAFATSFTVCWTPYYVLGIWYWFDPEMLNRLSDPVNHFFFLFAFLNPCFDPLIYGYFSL
# Sequence of UniProt Q969F8 (Q969F8 whole entry, looked up): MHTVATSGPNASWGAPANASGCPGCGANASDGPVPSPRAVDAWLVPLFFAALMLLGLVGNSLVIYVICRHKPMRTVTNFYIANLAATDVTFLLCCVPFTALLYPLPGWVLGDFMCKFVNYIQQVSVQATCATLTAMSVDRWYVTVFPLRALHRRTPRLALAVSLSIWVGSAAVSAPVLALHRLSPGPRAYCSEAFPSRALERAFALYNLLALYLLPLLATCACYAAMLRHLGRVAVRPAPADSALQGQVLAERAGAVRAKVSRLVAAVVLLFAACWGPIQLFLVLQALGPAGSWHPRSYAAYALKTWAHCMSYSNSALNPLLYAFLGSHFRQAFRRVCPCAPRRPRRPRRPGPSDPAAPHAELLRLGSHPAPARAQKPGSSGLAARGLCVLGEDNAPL
compound,measurement,setting,value
CCOc1ccc2c(c1)C(C)=CC(C)(C)N2,Potency,[1],active: 43.4 µM [sample A] and inactive [sample B]
same,Potency,[2],active: 54.7 µM [sample A] and inactive [sample B]
Cn1cnc([N+](=O)[O-])c1Sc1ncnc2nc[nH]c12,Potency,[1],active: 38.7 µM [sample A] and inactive [sample B]
CC(=O)[C@H]1CC[C@H]2[C@@H]3CCC4=CC(=O)CC[C@]4(C)[C@H]3CC[C@]12C,Potency,[3],active: 643 nM [sample A] and inactive [sample B]
CC(=O)CC(=O)Nc1ccccc1C,Potency,[1],active: 44.1 µM [sample A] and inactive [sample B]
Nc1ccc(N)c(Cl)c1,Potency,[1],inactive [sample A] and active: 8.71 µM [sample B]
same,Potency,[4],active: 7.68 µM [sample A] and inactive [sample B]
